According to PMC6794377:
No constants are given. Whether binding was seen depends on the method and setting. For part of these data: Binding seen in cells or lysates may run through a third protein. Some results given as binding are weak or reduced against the parent protein; the word gives no strength. For part of these data: Tags and fused reporters may be left off the sequences shown.

T1: C-terminal FLAG-tagged human threonyl-tRNA synthetase-like protein (hThrRS-L-FLAG) (human) (UniProt A2RTX5)
T1 sequence: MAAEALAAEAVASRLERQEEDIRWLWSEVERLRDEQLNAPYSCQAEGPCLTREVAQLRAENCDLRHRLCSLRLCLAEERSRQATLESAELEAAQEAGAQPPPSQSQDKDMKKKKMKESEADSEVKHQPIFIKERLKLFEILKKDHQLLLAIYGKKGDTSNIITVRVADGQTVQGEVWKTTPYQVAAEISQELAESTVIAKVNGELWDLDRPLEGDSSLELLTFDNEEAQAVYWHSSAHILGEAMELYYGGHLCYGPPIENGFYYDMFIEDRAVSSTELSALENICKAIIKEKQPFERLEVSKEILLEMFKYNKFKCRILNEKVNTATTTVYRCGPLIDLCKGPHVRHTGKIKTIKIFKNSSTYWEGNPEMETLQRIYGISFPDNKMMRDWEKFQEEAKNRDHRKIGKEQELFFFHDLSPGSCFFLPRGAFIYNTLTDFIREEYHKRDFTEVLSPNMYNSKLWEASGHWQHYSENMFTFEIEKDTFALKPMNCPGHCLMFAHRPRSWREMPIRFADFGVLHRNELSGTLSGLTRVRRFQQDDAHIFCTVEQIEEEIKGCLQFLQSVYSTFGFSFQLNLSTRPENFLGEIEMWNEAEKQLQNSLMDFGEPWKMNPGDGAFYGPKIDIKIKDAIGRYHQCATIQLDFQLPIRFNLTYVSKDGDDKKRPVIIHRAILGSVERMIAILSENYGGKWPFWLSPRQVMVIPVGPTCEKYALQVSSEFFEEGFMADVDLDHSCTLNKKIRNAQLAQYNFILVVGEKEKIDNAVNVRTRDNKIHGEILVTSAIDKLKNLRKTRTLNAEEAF

T2: hThrRS-L-S453D with a C-terminal FLAG tag (human) (UniProt A2RTX5)
T2 sequence: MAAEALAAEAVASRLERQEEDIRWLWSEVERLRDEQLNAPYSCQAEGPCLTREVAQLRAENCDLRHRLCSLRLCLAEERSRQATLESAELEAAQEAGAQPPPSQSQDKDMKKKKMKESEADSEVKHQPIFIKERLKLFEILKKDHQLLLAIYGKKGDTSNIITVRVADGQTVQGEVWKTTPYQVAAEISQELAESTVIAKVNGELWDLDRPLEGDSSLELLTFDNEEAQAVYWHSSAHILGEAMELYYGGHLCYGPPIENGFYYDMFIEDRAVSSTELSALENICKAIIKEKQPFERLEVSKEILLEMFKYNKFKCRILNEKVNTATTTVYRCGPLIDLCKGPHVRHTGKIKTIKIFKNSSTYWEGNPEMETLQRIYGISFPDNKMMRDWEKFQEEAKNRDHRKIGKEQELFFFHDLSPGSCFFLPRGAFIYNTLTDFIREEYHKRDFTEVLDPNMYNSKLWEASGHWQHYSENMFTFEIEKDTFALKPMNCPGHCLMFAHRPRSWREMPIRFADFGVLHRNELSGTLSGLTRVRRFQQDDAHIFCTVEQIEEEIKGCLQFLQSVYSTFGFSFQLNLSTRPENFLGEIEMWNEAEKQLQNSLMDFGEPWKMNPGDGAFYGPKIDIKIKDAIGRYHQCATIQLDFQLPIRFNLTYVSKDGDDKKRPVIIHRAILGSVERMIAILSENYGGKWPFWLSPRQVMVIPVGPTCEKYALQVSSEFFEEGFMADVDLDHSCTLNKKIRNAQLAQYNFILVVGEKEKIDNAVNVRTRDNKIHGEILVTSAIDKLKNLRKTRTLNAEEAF

T3: native hThrRS-L, endogenous in HEK293T (human (endogenous in HEK293T)) (UniProt A2RTX5)
T3 sequence: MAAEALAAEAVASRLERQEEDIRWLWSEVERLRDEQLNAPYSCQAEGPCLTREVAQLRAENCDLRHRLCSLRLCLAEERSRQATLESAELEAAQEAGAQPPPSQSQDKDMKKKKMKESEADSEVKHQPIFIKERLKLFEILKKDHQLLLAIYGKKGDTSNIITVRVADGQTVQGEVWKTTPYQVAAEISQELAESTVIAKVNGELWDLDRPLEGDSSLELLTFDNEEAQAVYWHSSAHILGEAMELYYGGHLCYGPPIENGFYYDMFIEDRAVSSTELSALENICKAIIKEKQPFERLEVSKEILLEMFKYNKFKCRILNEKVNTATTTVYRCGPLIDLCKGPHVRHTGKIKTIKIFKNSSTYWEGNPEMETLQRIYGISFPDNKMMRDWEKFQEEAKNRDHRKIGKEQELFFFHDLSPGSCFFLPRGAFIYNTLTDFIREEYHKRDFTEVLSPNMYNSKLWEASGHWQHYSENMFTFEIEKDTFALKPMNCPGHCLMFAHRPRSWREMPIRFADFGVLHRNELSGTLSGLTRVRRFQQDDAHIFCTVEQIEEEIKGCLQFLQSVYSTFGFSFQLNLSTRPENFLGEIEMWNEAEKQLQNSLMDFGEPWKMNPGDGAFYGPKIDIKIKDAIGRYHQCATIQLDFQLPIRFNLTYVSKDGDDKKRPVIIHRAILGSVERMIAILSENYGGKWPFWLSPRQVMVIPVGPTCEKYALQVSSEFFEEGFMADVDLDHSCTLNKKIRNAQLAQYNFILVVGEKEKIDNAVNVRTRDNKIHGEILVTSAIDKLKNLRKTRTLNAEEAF

T4: native p43 (AIMP1), endogenous in human cells (human (endogenous in HEK293T and HeLa)) (UniProt Q12904)
T4 sequence: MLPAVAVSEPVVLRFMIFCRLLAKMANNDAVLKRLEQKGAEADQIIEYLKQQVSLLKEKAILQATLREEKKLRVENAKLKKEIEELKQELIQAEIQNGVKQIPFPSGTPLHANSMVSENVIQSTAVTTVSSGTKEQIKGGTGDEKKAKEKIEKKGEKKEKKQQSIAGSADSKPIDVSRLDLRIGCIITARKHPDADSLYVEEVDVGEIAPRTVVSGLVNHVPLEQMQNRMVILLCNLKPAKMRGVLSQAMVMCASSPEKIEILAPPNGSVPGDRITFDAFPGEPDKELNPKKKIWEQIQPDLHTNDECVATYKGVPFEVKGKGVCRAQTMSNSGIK

B1: native p43 (AIMP1), endogenous in human cells (protein, UniProt Q12904-2 1-336)
chain: MLPAVAVSEPVVLRFMIFCRLLAKMANNDAVLKRLEQKGAEADQIIEYLKQQVSLLKEKAILQATLREEKKLRVENAKLKKEIEELKQELIQAEIQNGVKQIPFPSGTPLHANSMVSENVIQSTAVTTVSSGTKEQIKGGTGDEKKAKEKIEKKGEKKEKKQQSIAGSADSKPIDVSRLDLRIGCIITARKHPDADSLYVEEVDVGEIAPRTVVSGLVNHVPLEQMQNRMVILLCNLKPAKMRGVLSQAMVMCASSPEKIEILAPPNGSVPGDRITFDAFPGEPDKELNPKKKIWEQIQPDLHTNDECVATYKGVPFEVKGKGVCRAQTMSNSGIK
B2: ArgRS, endogenous in human cells (enzyme, UniProt P54136 1-660)
chain: MDVLVSECSARLLQQEEEIKSLTAEIDRLKNCGCLGASPNLEQLQEENLKLKYRLNILRKSLQAERNKPTKNMINIISRLQEVFGHAIKAAYPDLENPPLLVTPSQQAKFGDYQCNSAMGISQMLKTKEQKVNPREIAENITKHLPDNECIEKVEIAGPGFINVHLRKDFVSEQLTSLLVNGVQLPALGENKKVIVDFSSPNIAKEMHVGHLRSTIIGESISRLFEFAGYDVLRLNHVGDWGTQFGMLIAHLQDKFPDYLTVSPPIGDLQVFYKESKKRFDTEEEFKKRAYQCVVLLQGKNPDITKAWKLICDVSRQELNKIYDALDVSLIERGESFYQDRMNDIVKEFEDRGFVQVDDGRKIVFVPGCSIPLTIVKSDGGYTYDTSDLAAIKQRLFEEKADMIIYVVDNGQSVHFQTIFAAAQMIGWYDPKVTRVFHAGFGVVLGEDKKKFKTRSGETVRLMDLLGEGLKRSMDKLKEKERDKVLTAEELNAAQTSVAYGCIKYADLSHNRLNDYIFSFDKMLDDRGNTAAYLLYAFTRIRSIARLANIDEEMLQKAARETKILLDHEKEWKLGRCILRFPEILQKILDDLFLHTLCDYIYELATAFTEFYDSCYCVEKDRQTGKILKVNMWRMLLCEAVAAVMAKGFDILGIKPVQRM
B3: native hThrRS, endogenous in HEK293T (enzyme, UniProt P26639 1-723)
chain: MFEEKASSPSGKMGGEEKPIGAGEEKQKEGGKKKNKEGSGDGGRAELNPWPEYIYTRLEMYNILKAEHDSILAEKAEKDSKPIKVTLPDGKQVDAESWKTTPYQIACGISQGLADNTVIAKVNNVVWDLDRPLEEDCTLELLKFEDEEAQAVYWHSSAHIMGEAMERVYGGCLCYGPPIENGFYYDMYLEEGGVSSNDFSSLEALCKKIIKEKQAFERLEVKKETLLAMFKYNKFKCRILNEKVNTPTTTVYRCGPLIDLCRGPHVRHTGKIKALKIHKNSSTYWEGKADMETLQRIYGISFPDPKMLKEWEKFQEEAKNRDHRKIGRDQELYFFHELSPGSCFFLPKGAYIYNALIEFIRSEYRKRGFQEVVTPNIFNSRLWMTSGHWQHYSENMFSFEVEKELFALKPMNCPGHCLMFDHRPRSWRELPLRLADFGVLHRNELSGALTGLTRVRRFQQDDAHIFCAMEQIEDEIKGCLDFLRTVYSVFGFSFKLNLSTRPEKFLGDIEVWDQAEKQLENSLNEFGEKWELNSGDGAFYGPKIDIQIKDAIGRYHQCATIQLDFQLPIRFNLTYVSHDGDDKKRPVIVHRAILGSVERMIAILTENYGGKWPFWLSPRQVMVVPVGPTCDEYAQKVRQQFHDAKFMADIDLDPGCTLNKKIRNAQLAQYNFILVVGEKEKISGTVNIRTRDNKVHGERTISETIERLQQLKEFRSKQAEEEF

What was measured:
[1] = target: T1, C-terminal FLAG-tagged human threonyl-tRNA synthetase-like protein (hThrRS-L-FLAG) (human); test: co-IP; FLAG-tagged hThrRS-L or mutant expressed in HeLa cells; IP with anti-FLAG; endogenous partners detected by western blotting
[2] = target: T2, hThrRS-L-S453D with a C-terminal FLAG tag (human); test: as above
[3] = target: T3, native hThrRS-L, endogenous in HEK293T (human (endogenous in HEK293T)); test: co-IP; native HEK293T cell lysate, IP with anti-hThrRS-L antibodies; western blotting
[4] = target: T3, native hThrRS-L, endogenous in HEK293T (human (endogenous in HEK293T)); test: SEC; HEK293T whole cell lysate on Superose-6, 50 mM Tris-HCl pH 7.5, 50 mM NaCl, 1 mM PMSF, 1 mM DTT; fractions immunoblotted
[5] = target: T4, native p43 (AIMP1), endogenous in human cells (human (endogenous in HEK293T and HeLa)); test: co-IP; transfected HEK293T lysate, IP with anti-p43 antibodies; western blotting

binding [1] | binding [2] | binding [3] | binding [4] | binding [5] | Binder
binds | binds | binds | – | – | B1
binds | binds | binds | binds | binds | B2
– | – | – | – | no binding | B3
